Source: PubChem BioAssay AID1460 (National Center for Advancing Translational Sciences (NCATS), 2008)
“And” between values parts separate entries of the source, which are not always exact repeats. Equal entries are not always repeated. Out of some 270,000 compounds screened, about 5,800 (2.1%) were called active. Inconclusive means that the source gave no clear call. Such entries were picked first, then a sample of the others. Calls follow the shape of the dose curve; as a rule, active = well fitted inhibition curve with a large enough effect; inconclusive = small, poorly fitted or top-dose-only effect; inactive = flat fitted curve, though single readings scatter. A potency beside an inconclusive call is a rough fit, not a confirmed value.

molecular target: Microtubule-associated protein tau (Homo sapiens) (UniProt P10636); assay: qHTS for Inhibitors of Tau Fibril Formation, Thioflavin T Binding; settings: recombinant tau K18 P301L (four-repeat tau fragment), heparin-induced fibrillization, ThT fluorescence; series mostly up to 57.4 µM; activity, negative = inhibition: at the top concentration; also: nearly all actives have a fitted effect of over 55% in size
UniProt P10636, sequence (P10636 whole entry, looked up, the tested form may be a part): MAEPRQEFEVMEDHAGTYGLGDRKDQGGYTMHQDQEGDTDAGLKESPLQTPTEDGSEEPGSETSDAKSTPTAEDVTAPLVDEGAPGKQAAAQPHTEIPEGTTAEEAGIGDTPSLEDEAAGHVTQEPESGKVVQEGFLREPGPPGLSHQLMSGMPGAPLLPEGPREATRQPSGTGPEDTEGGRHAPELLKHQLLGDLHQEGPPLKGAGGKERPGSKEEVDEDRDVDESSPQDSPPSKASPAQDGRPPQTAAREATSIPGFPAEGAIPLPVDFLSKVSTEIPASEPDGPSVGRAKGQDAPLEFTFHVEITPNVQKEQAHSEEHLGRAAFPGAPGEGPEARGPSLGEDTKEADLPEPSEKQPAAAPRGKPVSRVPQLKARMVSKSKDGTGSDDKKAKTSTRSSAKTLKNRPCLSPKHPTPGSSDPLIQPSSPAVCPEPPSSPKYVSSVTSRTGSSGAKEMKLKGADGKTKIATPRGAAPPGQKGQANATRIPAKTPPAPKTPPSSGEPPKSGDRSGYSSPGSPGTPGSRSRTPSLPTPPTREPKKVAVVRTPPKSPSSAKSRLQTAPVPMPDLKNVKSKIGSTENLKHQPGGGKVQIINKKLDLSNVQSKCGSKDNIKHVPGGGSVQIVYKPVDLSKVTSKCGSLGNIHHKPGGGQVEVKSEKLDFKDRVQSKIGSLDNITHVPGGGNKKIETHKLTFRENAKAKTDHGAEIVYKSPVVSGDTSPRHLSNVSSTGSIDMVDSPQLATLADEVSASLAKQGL
Method in brief: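 Recombinant human tau K18 fragment […] carrying P301L, 15 uM unlabeled plus 0.24 uM Alexa 594-labeled, was fibrillized with 20 uM heparin in 100 mM sodium acetate pH 7 for 6 hr at 37 C; 30 uM ThT fluorescence read after 1 hr.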
% is scaled to controls: 0 for no effect and ±100 for the full control effect; potency is read from the fitted curve at half-maximal effect; tags tell the direction and shape of the fitted curve.

SMILES	Potency	activity, negative = inhibition
Cc1ccc(NC(=O)c2c(C)nn(-c3ccccc3)c2Cl)c(C)c1	inconclusive: 0.501 µM [inhibitor, full curve]	–
O=C(O)Cc1sc(Nc2ccccc2)nc1-c1ccccc1	inconclusive: 35.5 µM [inhibitor, partial curve]	–
CN(CCOc1ccc(C[C@H](Nc2ccccc2C(=O)c2ccccc2)C(=O)O)cc1)c1ccccn1	inconclusive: 17.8 µM [inhibitor, partial curve] and inconclusive: 14.1 µM [inhibitor, partial curve]	–
Oc1csc(Cc2nc(-c3ccc4ccccc4c3)cs2)n1	active: 3.55 µM	–
CCc1nnc(NC(=O)c2cccc(OC)c2)s1	–	inactive: -12.7%
CC(=O)c1ccc(-n2nncc2C(C)(C)C)cc1	–	inactive: 3.75%
CCOC(=O)c1nnc(-c2ccccc2)nc1NCc1ccc(Cl)cc1	inconclusive: 15.8 µM [inhibitor, partial curve]	–
Cc1ccc(NC(=O)c2cnn(C)c2)cc1[N+](=O)[O-]	inconclusive: 25.1 µM [inhibitor, single point]	–
CCNc1cc(N2CCN(C3CCCCC3)CC2)c2noc3c2c1C(=O)c1ccccc1-3	inconclusive: 10 µM [inhibitor, partial curve]	–
COc1ccc(-c2cc(=NC(CC(C)C)C(=O)O)c3cc(C)ccc3o2)cc1 (configuration not stated)	inconclusive: 2.82 µM [inhibitor, full curve]	–
CC(O)[C@H]1CNC(=O)C(=O)N1CCCCC1CCCCC1 (some centres not stated)	inconclusive: 3.16 µM [activator, single point]	–
CC(C)C[C@@H](NC(=O)[C@@H](O)[C@H](N)Cc1ccccc1)C(=O)O	inconclusive: 22.4 µM [inhibitor, partial curve]	–
CCn1c(SCC(=O)N/N=C/C=C/c2ccccc2[N+](=O)[O-])nnc1-c1ccc(Cl)cc1	inconclusive: 15.8 µM [inhibitor, partial curve]	–
O=C(Cn1cc(S(=O)(=O)c2ccccc2)c(=O)c2cc3c(cc21)OCO3)Nc1ccc(Cl)cc1	inconclusive: 5.01 µM [activator, full curve, poor fit]	–
O=C(CS(=O)(=O)c1cccc2nsnc12)N1CCN(c2cccc(C(F)(F)F)c2)CC1	–	inactive: -15.4%
NC(=O)N/N=C/c1ccc(-c2cccc(C(F)(F)F)c2)o1	–	inactive: -10.6%
CN1CCN(C(=S)c2ccc([N+](=O)[O-])cc2)CC1	–	inactive: -10.7%
CC(C)C(c1nnnn1C1CCCC1)N(C)C1CCCCC1 (configuration not stated)	–	inactive: -14%
CCOc1ccc(Nc2ncnc3c2nc2n3CCCC2)cc1	inconclusive: 17.8 µM [inhibitor, partial curve]	–
c1ccc(CCc2nn3c(Cn4cnc5ccccc54)nnc3s2)cc1	–	inactive: -27.2%
CC1(C)NC(=O)N(CC(O)COc2ccccc2C(=O)Nc2ccccc2)C1=O (configuration not stated)	inconclusive: 7.94 µM [inhibitor, single point]	–

SMILES	Potency	activity, negative = inhibition
O=C(O)c1ccc2nc(-c3cc4cccc(O)c4oc3=O)[nH]c2c1	inconclusive: 20 µM [inhibitor, partial curve]	–
Cc1cc(C=O)c(C)n1-c1ccc2c(c1)OCO2	inconclusive: 28.2 µM [inhibitor, partial curve, poor fit]	–
COc1ccc(N2CCN(c3csc4ccc(Cl)cc4c3=O)CC2)cc1	active: 6.31 µM	–
O=C(O)c1cccc(Nc2ncnc3c2cnn3-c2ccccc2)c1	inconclusive: 17.8 µM [activator, partial curve]	–
CCOc1ccc(Nc2nc3cc(Cl)c(Cl)cc3nc2-n2nc(C)cc2C)cc1	–	inactive: -2.38%
CC(C)CCn1c(Sc2nc3ccccc3o2)nc2c1c(=O)[nH]c(=O)n2C	inconclusive: 39.8 µM [inhibitor, single point]	–
COc1ccccc1CCNC(=O)C1CCN(c2nnc(-n3cccc3CNc3ccc(C)cc3)s2)CC1	inconclusive: 8.91 µM [inhibitor, partial curve]	–
O=C(CSc1nc2c(sc3ccccc32)c(=O)n1Cc1ccco1)NCC1CCCO1 (configuration not stated)	–	inactive: -6.15%
O=C(COC(=O)C1CCN(S(=O)(=O)c2cc([N+](=O)[O-])ccc2Cl)CC1)Nc1ncc(Cl)cc1Cl	inconclusive: 25.1 µM [inhibitor, single point]	–
CCc1cc(C(c2cccc(OC)c2)N2CCOCC2)c(NC(=O)c2ccccc2)s1 (configuration not stated)	inconclusive: 35.5 µM [inhibitor, single point]	–
Cc1ccc(C(CC(=O)c2ccco2)SCCO)cc1 (configuration not stated)	inconclusive: 12.6 µM [inhibitor, partial curve]	–
CCC(Oc1ccccc1F)C(=O)N1CCC(c2nc3ccccc3s2)CC1 (configuration not stated)	inconclusive: 44.7 µM [inhibitor, single point]	–
CC1(C)CC(=O)C(C(c2cccnc2)C2C(=O)CC(C)(C)CC2=O)C(=O)C1	inconclusive: 10 µM [inhibitor, partial curve]	–
O=C(CCN1C(=O)c2ccccc2C1=O)N1CCN(Cc2ccc(Cl)cc2Cl)CC1	inconclusive: 39.8 µM [inhibitor, single point]	–
Cc1ccc(NC(=O)c2cc(N3C(=O)C=CC3=O)ccc2Cl)cc1C	inconclusive: 20 µM [inhibitor, partial curve]	–
O=C(CSc1nc2ccccc2c(=O)n1-c1ccc(F)cc1F)Nc1ccc(N2CCOCC2)cc1	inconclusive: 3.55 µM [inhibitor, full curve, poor fit]	–
CCc1nc(N[C@@H](Cc2c[nH]c3ccccc23)C(=O)O)c2oc3ccccc3c2n1	inconclusive: 14.1 µM [inhibitor, partial curve]	–
CCCC(=O)N1CCN(c2ccc(NC(=O)c3cccs3)cc2Cl)CC1	inconclusive: 14.1 µM [inhibitor, partial curve]	–
CCOC(=O)CNC(=O)Nc1cc(C(=O)NCc2ccccc2OC)ccc1N1CCCC1	–	inactive: -5.36%
O=C(OCc1nnc(-c2ccccc2)o1)c1ccc2ccccc2n1	inconclusive: 3.55 µM [inhibitor, partial curve]	–
CCOc1ccc(NC(=O)CSc2ccc(-c3sc(-c4ccccc4)nc3C)nn2)cc1	inconclusive: 1.26 µM [inhibitor, full curve]	–
